# Assay results published in the supplement of paper PMC8047034.
# Counter-ions that a name gives are not always drawn. The list shows a part of the results. Most values come without repeats; read them as rough.
# Test system: Ov4Carbo
# Test: log2 surviving fraction (library drug vs vehicle, or drug + carboplatin vs carboplatin alone; relative to plate median); ovarian cancer lines: OVCAR4 is platinum-sensitive and Ov4Carbo platinum-resistant; higher = more cell survival
# Conditions: library drug concentration 10 µM; 7 days; carboplatin co-treatment 5 µM
row,Compound,log2 surviving fraction
1,C=C(c1ccc(C(=O)O)cc1)c1cc2c(cc1C)C(C)(C)CCC2(C)C [Bexarotene],-0.295
2,CC(=O)O[C@]1(C(C)=O)CC[C@H]2[C@@H]3C=C(C)C4=CC(=O)CC[C@]4(C)[C@H]3CC[C@@]21C [Megestrol Acetate],0.381
3,CCC(C)n1ncn(-c2ccc(N3CCN(c4ccc(OCC5COC(Cn6cncn6)(c6ccc(Cl)cc6Cl)O5)cc4)CC3)cc2)c1=O (stereo not given) [Itraconazole (Sporanox)],-0.271
4,CCOC(=O)c1ccc(N)cc1 [Benzocaine],-0.358
5,O=c1oc2c(O)c(O)cc3c(=O)oc4c(O)c(O)cc1c4c23 [Ellagic acid],0.241
6,CS(=O)(=O)Nc1ccc([N+](=O)[O-])cc1Oc1ccccc1 [Nimesulide],0.299
7,CCOC(=O)N1CCC(=C2c3ccc(Cl)cc3CCc3cccnc32)CC1 [Loratadine],-2.91
8,CC1(C)S[C@@H]2[C@H](NC(=O)[C@H](NC(=O)N3CCNC3=O)c3ccccc3)C(=O)N2[C@H]1C(=O)O [Azlocillin sodium salt],-0.385
9,CNC1CCCN(c2c(F)cc3c(=O)c(C(=O)O)cn(C4CC4)c3c2OC)C1 (stereo not given) [Balofloxacin],1.32
10,CNCC[C@H](Oc1cccc2ccccc12)c1cccs1 [Duloxetine HCl (Cymbalta)],-3.87
11,CC(C)NCC(O)COc1cccc2[nH]ccc12 (stereo not given) [Pindolol],0.0562
12,Cc1noc(NS(=O)(=O)c2ccc(N)cc2)c1C [Sulfisoxazole],-0.232
13,NCCS [Cysteamine HCl],-0.875
14,C[C@@H]1C[C@H]2[C@@H]3CCC4=CC(=O)C=C[C@]4(C)[C@@]3(F)[C@@H](O)C[C@]2(C)[C@@]1(O)C(=O)CO [Dexamethasone],-1.09
15,Nc1ncn([C@@H]2O[C@H](CO)[C@@H](O)[C@H]2O)c(=O)n1 [Azacitidine (Vidaza)],-1.14
16,CCCC(=O)[O-].[Na+] [Sodium butyrate],-0.257
17,CC(=O)N1CCN(c2ccc(OCC3COC(Cn4ccnc4)(c4ccc(Cl)cc4Cl)O3)cc2)CC1 (stereo not given) [Ketoconazole],-0.341
18,Nc1nnc(-c2cccc(Cl)c2Cl)c(N)n1 [Lamotrigine],-0.109

row,Compound,log2 surviving fraction
1,NCCS(=O)(=O)O [Taurine],-0.309
2,CCCCCCNC(=O)n1cc(F)c(=O)[nH]c1=O [Carmofur],-2.5
3,CNS(=O)(=O)CCc1ccc2[nH]cc(C3CCN(C)CC3)c2c1 [Naratriptan HCl],0.32
4,COc1cc(/C=C/C(=O)CC(=O)/C=C/c2ccc(O)c(OC)c2)ccc1O [Curcumin],-1.61
5,COc1c(C)c2c(c(O)c1C/C=C(\C)CCC(=O)OCCN1CCOCC1)C(=O)OC2 [Mycophenolate mofetil (CellCept)],-4.65
6,CC1=C(/C=C/C(C)=C/C=C/C(C)=C/C=C/C=C(C)/C=C/C=C(C)/C=C/C2=C(C)CCCC2(C)C)C(C)(C)CCC1 [Beta Carotene],0.326
7,O=C[C@H](O)[C@@H](O)[C@H](O)CO [Xylose],-0.647
8,COc1cc(NS(=O)(=O)c2ccc(N)cc2)nc(OC)n1 [Sulphadimethoxine],-1.04
9,NCCc1c[nH]cn1 [Histamine Phosphate],1.2
10,COc1ccccc1OCC(O)CN1CCN(CC(=O)Nc2c(C)cccc2C)CC1 (stereo not given) [Ranolazine dihydrochloride],0.98
11,C[C@](N)(Cc1ccc(O)c(O)c1)C(=O)O [Methyldopa (Aldomet)],-0.481
12,c1ccc(C2CN3CCSC3=N2)cc1 (stereo not given) [Tetramisole HCl],-0.425
13,CC1(C)O[C@@H]2C[C@H]3[C@@H]4CCC5=CC(=O)C=C[C@]5(C)[C@@]4(F)[C@@H](O)C[C@]3(C)[C@]2(C(=O)CO)O1 [Triamcinolone Acetonide],0.132
14,C[C@]12C=CC(=O)C=C1CC[C@@H]1[C@@H]2[C@@H](O)C[C@@]2(C)[C@H]1CC[C@]2(O)C(=O)CO [Prednisolone (Hydroretrocortine)],1.07
15,NC(=O)c1cnccn1 [Pyrazinamide (Pyrazinoic acid amide)],-0.0636
16,CN1C2=CC(=O)/C(=N\NC(N)=O)C=C2CC1S(=O)(=O)O (stereo not given) [Carbazochrome sodium sulfonate],0.0806
17,[O-][n+]1ccccc1[S-].[O-][n+]1ccccc1[S-].[Zn+2] [Pyrithione zinc],-6.88
